“And” between values parts separate entries of the source, which are not always exact repeats. Equal values may be shown once. Some of the results follow. Further columns of the screen follow, without active or inactive calls. Most of these compounds were active or inconclusive in the main read-out, so they are no random draw.
Assay: TAG lipid buildup reduction in H9c2 cells – cell-based, uHTS, fluorescence, primary screen (AID 651582)
Conditions: Nile Red lipid (TAG) fluorescence, measured here:, at 12.5 µM, cells loaded with 200 µM oleic acid

Compound | DAPI nuclei signal change (viability), lower = more cytotoxic
COc1ccc(C[C@H]2CN3C(=NC[C@@H]3Cc3ccccc3)N2CCNC(=O)c2ccc(C)c(Br)c2)cc1 | -3.99%
CCOc1ccc(CCNC(=O)c2cc3sccc3n2CC)cc1OCC | -15.2%
COc1ccc2[nH]c3c(c2c1)CCN1C(=O)C(CC(=O)NCC24CC5CC(CC(C5)C2)C4)C[C@H](C(=O)N(C(C)C)C(C)C)[C@@]31C (stereo partly drawn) | -1.04%
Cc1ccc(NC(=O)CSc2nc3ccc(Nc4nc(N5CCOCC5)nc(N5CCOCC5)n4)cc3s2)cc1 | -16.9%
COc1ccc(CNC(=O)Nc2nc(C(N)Cc3ccc(Cl)cc3)cs2)cc1 (stereo not drawn) | -15.2%
CN(C)CCCN(C(=O)c1cc(-c2cccs2)nc2ccccc12)c1nc2ccc(F)cc2s1 | 7.05%
CCCCCCCCCCCCCCCC[N+](C)(C)Cc1ccc(F)cc1 | -41.1%
COc1ccc(S(=O)(=O)N(C)C[C@@H]2OCCCC[C@H](C)Oc3ccc(NC(=O)Nc4ccc(C(F)(F)F)cc4)cc3C(=O)N([C@H](C)CO)C[C@H]2C)cc1 | -7.7%
COc1ccc(-c2sc3ccccc3c2-c2ccc(OCCN(C)C)cc2)cc1 | -26.1%
S=c1[nH]nc(-c2cc(-c3ccccc3)n[nH]2)n1/N=C/C(Br)=C/c1ccccc1 | -34.1%
Cc1cccc(CSc2cccc3cccnc23)c1 | -33%
COc1ccc(CNC(=O)C[C@H]2C[C@H](C(=O)N3CCCCC3)[C@@]3(CCc4ccccc4)c4[nH]c5ccc(Cl)cc5c4CCN3C2=O)cc1OC | -5.02%
Oc1ccc2ccccc2c1N=Nc1ccc(F)cc1 | 0.781%
C(=N\NC1=Nc2cccc3cccc1c23)/c1ccccn1 | -14.1%
O=c1cc(-c2cccc(Cl)c2)oc2cccc(O)c12 | -40.3%
CC(C)CN1CCN(C(=O)COC(=O)c2ccc(S(C)(=O)=O)c([N+](=O)[O-])c2)CC1 | -26%
CCC(C)(C)NC(=O)C(c1ccc(OC)cc1)N(Cc1cccs1)C(=O)CCC(=O)Nc1cc(C)on1 (stereo not drawn) | -10.2%
O=C(C[C@H]1C[C@H](C(=O)N2CCCCC2)[C@@]2(CCc3ccccc3)c3[nH]c4ccc(Cl)cc4c3CCN2C1=O)NCc1cccc(C(F)(F)F)c1 | -19.2%
O=Nc1c(O)c2ccccc2c2ccccc12 | 2.6%
CCN1CCN(Cc2ccc(NC(=O)c3cc(NC(=O)C(=O)c4c[nH]c5ccccc45)cc(OC)c3)cc2C(F)(F)F)CC1 | -37.9% and -40.3%
COc1ccccc1C1=NOC(COc2ccc3c(C)cc(=O)oc3c2)C1 (stereo not drawn) | -32.6%
CN(C)CCNC=C(C(=O)Nc1ccc(Cl)cc1Cl)C(=O)Nc1ccc(Cl)cc1Cl | -47.4%

Compound | DAPI nuclei signal change (viability), lower = more cytotoxic
c1ccc(CCNc2ccnc3cc4ccccc4cc23)cc1 | 77.4%
COc1cc([C@H]2c3[nH]c4ccccc4c3C[C@H]3C(=O)N4[C@@H](c5cc(OC)c(OC)c(OC)c5)c5[nH]c6ccccc6c5C[C@H]4C(=O)N23)cc(OC)c1OC | -35.8%
CSC1=NC(C(Cl)(Cl)Cl)N=C(c2ccc(C)cc2)N1 (stereo not drawn) | -33.3%
C=CCn1cnc2c(c1=O)c1nc3ccccc3nc1n2/N=C/c1cc(OC)c(OC)c(OC)c1 | -25.5%
O=C(Cn1ncc(Cl)c(Cl)c1=O)NC(=O)NC1CCCCC1 | -18.2%
O=C(Cn1ncc(Cl)c(Cl)c1=O)N1CCN(Cc2ccccc2)CC1 | -40.7%
Cc1ccc(CN(C)C(=O)CN2C(=O)NC3(CCCc4ccccc43)C2=O)c(C)c1 (stereo not drawn) | -2.33%
O=C(CN(Cc1ccco1)C(=O)c1cccc(Cl)c1)Nc1c(Cl)cc(Cl)cc1Cl | 5.97%
C#CCN(C[C@@H]1[C@@H](OC(=O)NCc2ccco2)[C@@H](OC(=O)NCc2ccco2)CN(C(=O)OC(C)C)N1C(=O)OC(C)C)S(=O)(=O)c1ccc(C)cc1 | -31.2%
CCOc1ccccc1NC(=O)N1CCCC1C(=O)Nc1ccc(-n2cnnn2)c(C)c1 (stereo not drawn) | -8.45%
C/C(=N\NC(=O)C12CCC(C)(C(=O)O1)C2(C)C)c1ccccc1O (stereo not drawn) | -24.3%
COc1ccc(NC(=O)C2(C)Cc3c(-c4cccc(NC(C)=O)c4)ccnc3O2)cn1 (stereo not drawn) | -36.6%
COc1ccc(OC)c(/C=C/C(=O)OCC(=O)c2c(N)n(C)c(=O)n(C)c2=O)c1 | -38.4%
COc1ccccc1CNC(=O)CN1C(=O)NC(c2ccccc2)(c2ccc(C)c(C)c2)C1=O (stereo not drawn) | -11.1%
CC[C@@H](C)[C@H](CN[C@H](CNC)C(C)C)NC[C@@H](C)c1ccc(CC(C)C)cc1 | -40.6%
Cc1[nH]c2ccccc2c1/C=N/Nc1nc(Nc2ccc(F)cc2)nc(N2CCOCC2)n1 | -38.7%
CC(C)C[C@@H](CNC(=O)OC(C)(C)C)NC(=O)c1nc[nH]c1C(=O)N[C@@H](CC(C)C)C(=O)CNC[C@H](CC(C)C)NC(=O)c1nc[nH]c1C(=O)N[C@@H](Cc1c[nH]c2ccccc12)C(=O)OC(C)(C)C | -12.9%
C/C(=N\Nc1cc(N2CCOCC2)nc(C)n1)c1ccc(F)cc1 | -27.9%
CCOc1ccc2nc(-c3ccccc3)nc(SCC(=O)Nc3ncc(C)s3)c2c1 | 0.696%
CSc1sc(-c2ccnc(=S)[nH]2)c(-c2ccccc2)c1C#N | -19.5%
CC(=O)NC(c1cc(Cl)c2cccnc2c1O)C(C)C (stereo not drawn) | 3.73%
Cn1nnnc1Sc1ncnc2scc(-c3cccc(S(C)(=O)=O)c3)c12 | -31.6%

Compound | DAPI nuclei signal change (viability), lower = more cytotoxic
Oc1cc(-c2ccc(N3CCCCC3)nc2)cc2cccnc12 | -4.74%
CNC(=S)NN=C(C)CCCC(C)=NNC(=S)NC | -25.2%
COc1cc(C(=O)N2CCN(c3cc(Cl)ccc3Cl)CC2)cc(OC)c1OC | -40.5%
Cc1cccc(NC(=O)c2nc[nH]c2C(=O)NCCCNC(=O)c2[nH]cnc2C(=O)Nc2cccc(C)c2)c1 | 8.74%
Cc1cccc2sc(NC(=O)CCNS(=O)(=O)c3cccs3)nc12 | 114%
Cc1ccc(C(=O)Nc2cccc(C(F)(F)F)c2)cc1NC(=O)c1nccn1C | -34.4%
COc1ccccc1N(C(=O)CCl)c1cn(C(C)=O)c2ccccc12 | -18.5%
COCCS(=O)(=O)N(Cc1ccc(Br)cc1)[C@@H](C)C(=O)OC | -39.7%
COc1ccccc1NC(=O)c1ccccc1S(=O)(=O)c1ccc([N+](=O)[O-])cc1 | -34.8%
COc1cccc(-c2cc(=O)c3cc(NC(C)=O)ccc3[nH]2)c1 | -31.2%
O=C(Nc1ccncc1)C1CCCN(S(=O)(=O)c2cccc3cccnc23)C1 (stereo not drawn) | -43.4%
O=c1c2c3nc4ccccc4nc3n(/N=C/c3ccccn3)c2ncn1-c1ccccc1 | -11.2%
COc1cc2c(cc1NC(=O)Nc1cccc(C)c1)oc1ccccc12 | 1.46%
Oc1cc(-c2cccnc2)cc2cccnc12 | -49.6%
COc1ccc([C@H]2CC(=O)C=C(c3ccc(OC)cc3OC)C2)cc1 | -40.2%
COc1cc(CNc2ccc(N3CCCC3)cc2)cc(Cl)c1OC | -5.56%
COc1cccc2sc(Nc3nc(-c4ccncc4)cs3)nc12 | -12.8%
C=C(C)c1cccc(C(C)(C)NC(=O)N2CCC(C(N)=O)CC2)c1 | -39.8%
O=C(NCCc1c[nH]c2ccccc12)C1CCC(Cn2c(=S)[nH]c3ccccc3c2=O)CC1 (stereo not drawn) | 2.53%
CCn1cc([N+](=O)[O-])c(C(=O)N2N=C(c3ccc4ccccc4c3)CC2c2ccccc2O)n1 (stereo not drawn) | -7.16%
COC(=O)C1=C(C)N(Cc2ccccc2)C(=NCc2cccc(Cl)c2)N[C@H]1c1cccc(F)c1 | -47.6%
COc1ccc(NC(=O)C2(C)Cc3c(-c4cccc(C(N)=O)c4)ccnc3O2)cc1 (stereo not drawn) | -33.4%

Compound | DAPI nuclei signal change (viability), lower = more cytotoxic
COc1ccc2nc3cc(Cl)ccc3c(Nc3ccc(O)c(CN4CCN(C)CC4)c3)c2c1 | -27.8%
Nc1ncnc2c1ncn2[C@@H]1O[C@H](CNCc2cn(CC(=O)NC3CC3)c3ccccc23)[C@@H](O)[C@H]1O | -48.5%
CC(C)CNS(=O)(=O)c1ccc(CCC(=O)Nc2cc(Cl)ccc2Oc2ccccc2)cc1 | -7.49%
CCCCCc1cc(=O)oc2c(C(CCN3CCCCC3)c3ccc(OC)cc3)c(OC)cc(OC)c12 (stereo not drawn) | -30.4%
CCC(C)(C)NC(=O)C(c1cccn1C)N(Cc1ccc(OC)cc1)C(=O)Cn1nnc2ccccc21 (stereo not drawn) | -4.05%
N=c1n(CC(=O)c2ccc(Br)s2)c2ccccc2n1Cc1ccccc1 | -6.57%
CCn1c(COc2ccc(C(C)C)cc2)nnc1SCC(=O)Nc1nccs1 | -5.31%
COc1ccc(C(C(=O)NC(C)(C)C)N(Cc2ccco2)C(=O)CCC(=O)Nc2cc(C)on2)cc1 (stereo not drawn) | 18.9%
CCOC(=O)c1cnc2ccc(OCC)cc2c1N1CCN(c2ccccc2)CC1 | 4.99%
O=C(COc1ccc(Cl)cc1Cl)NN=C1c2ccccc2-c2ccccc21 | 22.6%
C[C@H]1CN([C@@H](C)CO)C(=O)c2cc(NC(=O)Nc3cccc4ccccc34)ccc2O[C@@H]1CN(C)Cc1ccc(-c2ccccc2)cc1 | -0.226%
COc1cc(OC)c2c(-c3ccccc3)cc(=O)oc2c1C(CCN1CCCC(C)C1)c1ccc2c(c1)OCO2 (stereo not drawn) | -31.6%
COc1ccc(-c2noc(-c3ccccc3C(=O)Nc3cccnc3)n2)cc1 | -25.4%
CC(C)(C)c1ccc(C(=O)NNc2cc(N3CCCCC3)nc(N3CCCCC3)n2)cc1 | -7.07%
CC(=O)OCC(=O)[C@@]12OC3(CCCC3)O[C@@H]1C[C@H]1[C@@H]3CCC4=CC(=O)C=C[C@]4(C)[C@@]3(F)[C@@H](O)C[C@@]12C | 4.2%
O=C1/C(=N\S(=O)(=O)c2cccs2)C([n+]2cccc(Cc3ccccc3)c2)=C([O-])c2ccccc21 | -25.6%
O=c1c(Cl)c(Cl)cnn1Cc1nnc(-c2ccc(Cl)cc2)o1 | -17.5%
CCOc1ccc2nc(NC(=O)CN3CCN(C)CC3)sc2c1 | -12.8%
Cc1cc(C)c2sc(N(CCCN(C)C)C(=O)c3ccc(S(=O)(=O)N4CCc5ccccc5C4)cc3)nc2c1 | -42.3%
O=c1c(Cl)c(Cl)cnn1-c1ccccc1 | -25.4%
CN(C)CCCN(C(=O)c1ccc(S(=O)(=O)N2CCc3ccccc3C2)cc1)c1nc2ccc(F)cc2s1 | -33.1%
CSc1ccc(C2=C/C(=C3/SC(=S)NC3=O)c3ccccc3O2)cc1 | -4.07%
